# Data from patent US12076300B2, “Dosage regime with esketamine for treating major depressive disorder” (priority 2019, dated 2024).
# Test system: bone marrow cells of Crl:CD(SD) rats
# Experiment: Mammalian erythrocyte micronucleus test
# Details: male or female rats, oral gavage
structure (smiles),measurement,value
"CN[C@]1(c2ccccc2Cl)CCCCC1=O [esketamine, (2S)-2-(2-Chlorophenyl)-2-(methylamino) cyclohexanone]",induction of micronucleated polychromatic erythrocytes or bone marrow cell toxicity (study conclusion),has not shown any evidence of causing an increase
